# Experimental data as given in the supplement of paper PMC3334620.
# In all, about 33,000 sequences were measured (“E-score (-0.5 to 0.5)”: median about -0.01, highest 2% from about 0.26 on). The list shows a part of the results.
# Biological target: Ste12 (UniProt P13574)
# Test: PBM E-score (8-mer binding enrichment) (E-score (-0.5 to 0.5)); higher = stronger / more preferred TF binding; most listed sequences are background and not binding sites
# Settings: protein concentration: 200 nM; construct: GST-DNA-binding domain
# In short: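 Yeast transcription factors, full-length or as DNA-binding domains, were expressed with a GST tag using PURExpress in vitro transcription/translation. At about 100-200 nM they were applied to universal all-10-mer Agilent arrays, double-stranded by primer extension on fresh or once-stripped slides. Fluorescent anti-GST detected bound protein, and masliner normalised the scans. E-scores for ungapped eight-base words, pooled with reverse complements, came from the Universal PBM Analysis Suite.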
row,Sequence,PBM E-score
1,GCGAGACA,-0.0151
2,CAATCATC,-0.0782
3,AGTTCTGG,0.0162
4,GACCCGAA,0.00892
5,CCTAAGGC,-0.258
6,ACGTCCCG,-0.126
7,GATAGGCC,-0.234
8,GATTACCC,0.0298
9,CAAAATCG,0.0648
10,CTGGCAGC,0.0431
11,ACGCGTCC,-0.045
12,AGCATTTA,0.0171
13,CGGATCCC,-0.248
14,AGACTTGC,-0.232
15,ACAATGGC,0.0105
16,GTACTGAA,0.129
17,CTGGCCGA,-0.0768
18,AACCATAA,0.147
19,ACCGCACC,0.0603
20,TCATTCAA,0.189
21,GGAGTGAA,0.117
22,GTGTCGGA,0.0796
23,TAGAAGCA,0.0215
24,AGGTGTTG,-0.0455
25,AGCTGAAG,-0.127

row,Sequence,PBM E-score
1,AGCACCGC,-0.158
2,ACTGGGCC,-0.244
3,AACGGTGC,-0.0574
4,CGAACCTC,0.108
5,AAGTGGAA,0.0423
6,CAGCCTTA,-0.172
7,CCCAAACC,0.0877
8,CAATAATA,0.106
9,ATTTAAAA,0.314
10,GTCAAGAA,0.165
11,ATTGTGAC,0.0332
12,CGCACACG,-0.0244
13,AGAGTCTA,-0.178
14,GGGACCTA,0.0802
15,CTAGCAGA,-0.212
16,AATCAAGG,-0.0911
17,CCCGGCAC,-0.137
18,CCCAAGTA,-0.0167
19,GTACGCAA,-0.0403
20,CTGAGGGA,-0.106
21,GCAGTTTA,0.0336
22,AGGTTTTC,0.241
23,AGCCTAGG,-0.187
24,ACCTTAAA,0.0279
25,AATTCGGT,0.195

row,Sequence,PBM E-score
1,GTACAGCA,-0.0907
2,ATACACAT,0.0874
3,ACAGATAC,0.00521
4,GGCATCAC,-0.235
5,GGTATCAC,-0.105
6,ACTTAATC,0.0743
7,ACGATTGC,-0.0741
8,GTCAGTCA,-0.119
9,CTGTATAC,0.00826
10,GTCACCTA,-0.214
11,CTCTGCAC,0.0607
12,AAAGCACT,0.0173
13,AATACGCC,0.0624
14,CCGCTATC,0.0754
15,CGTCCCCA,-0.126
16,GGATTTGA,0.046
17,CCATCGCC,-0.216
18,CACGGTGC,0.101
19,ACGGGGGA,-0.106
20,ACGACCCG,-0.11
21,CCTATACA,-0.0187
22,AAAGCGAC,0.0447
23,ATAAAAAG,0.315
24,GGGAATAA,0.123
25,ATCGGTCA,0.00948

row,Sequence,PBM E-score
1,CATTATCG,-0.05
2,CTACGTAC,-0.148
3,ACGGAACC,-0.0567
4,CTGGTGAA,-0.117
5,GACGGTTA,-0.0498
6,GAATAATA,0.286
7,ACAAGGAT,0.00421
8,AAATCCTC,-0.0111
9,ATAACTCC,0.00165
10,TCGTTGAA,-0.00474
11,ACTTGTGC,-0.106
12,CAAAGAGA,-0.00487
13,AAGGTACA,0.0739
14,AAAAGTCA,0.099
15,CGCTAAAG,-0.191
16,AGATATGC,-0.0615
17,AAGCGTCC,-0.272
18,CAGCAGAG,-0.0328
19,CTTTACAC,0.144
20,GCTGGCCC,-0.203
21,GCGCTGAC,0.0672
22,ATGACGGC,0.078
23,CGAGGAAA,0.0137
24,CTATTTTC,0.0376
25,CTGCACCC,-0.0758

row,Sequence,PBM E-score
1,ATATTCCA,0.0805
2,ATGGTCAA,0.0667
3,CGCAGACA,-0.057
4,CATAGTGA,-0.0589
5,CATCCCAG,-0.0583
6,CTAGGTAC,-0.156
7,ACCGAGCT,0.0151
8,GGATGCCC,-0.166
9,CATATACA,0.148
10,GCTTGTCA,-0.0245
11,CTCCCACA,-0.00169
12,CGTACCGC,-0.0216
13,ACACGGGA,-0.0631
14,AACCGACA,0.115
15,CAATTTGG,-0.0412
16,GGCCTTCA,-0.0265
17,AAATGGAG,-0.108
18,CACGTATG,-0.126
19,CGGAATCA,0.0602
20,CCCCGCGC,0.0272
21,GCCCGGGA,0.029
22,ACCACCCT,-0.127
23,CTATGGGC,-0.159
24,ATCGGCAC,-0.0825
25,AACACTTC,0.135

row,Sequence,PBM E-score
1,AAGCATAT,0.0466
2,AACCTTCA,-0.0332
3,CGGCTAGA,-0.134
4,ACCGGACA,-0.201
5,CAAAGCCC,-0.111
6,AGGAGTTG,-0.00808
7,ACGTGGAC,-0.14
8,CAGGCTAC,-0.0983
9,CGCATATC,0.105
10,CTGGTCAC,-0.256
11,GCCCCAGA,-0.0561
12,CCACACCC,0.148
13,CATGATCG,0.0593
14,TACTCCCA,0.056
15,ATAAATTC,0.102
16,AACAAGGT,-0.0738
17,AAGTCTAC,-0.116
18,CCGCACTC,-0.114
19,CAGGCAAC,-0.0818
20,CATAACTC,-0.0102
21,CGTGTCGA,0.0241
22,GCAATAAA,0.279
23,AATATACG,0.0752
24,AGCCTACC,-0.137
25,ACGACAGC,-0.0551

row,Sequence,PBM E-score
1,AATAGATT,0.134
2,CGATTAAG,0.062
3,CACCCTAG,0.105
4,CGTATAAG,-0.0378
5,ATCTGACG,-0.0745
6,ATAATGTG,0.17
7,ATCGCATG,-0.0289
8,ACCCTCAG,-0.0573
9,GCGAGCGA,0.00126
10,AATGTGGC,0.0231
11,AAGATACT,0.0537
12,CCAAGTTC,-0.0421
13,GTGTTCCA,0.141
14,CGGCCCTA,-0.102
15,GTAAACTA,0.107
16,GCCGCTCA,-0.107
17,GCACCAGC,-0.101
18,ATTAGGAC,-0.179
19,TCTTACAA,0.0356
20,ACGGGAGG,-0.0864
21,CAACGAAA,0.13
22,GTTAATCA,0.0855
